In PubChem BioAssay AID1362 (SRMLSC, 2008) one finds inhibition data, which are given here for 67 compounds.

Each structure is given as a SMILES string. This is one part of the list. These are further read-outs of the screen, such as a control signal, another cell line or another target. No call is given for them. Compounds called inactive in the main read-out are mostly missing here.

The nature of this assay: growth inhibition of WT strain, primary screen, mitochondrial fusion inhibitor project, WT and mutant strains, chemical genetic (AID 1362). Also: tested in S. cerevisiae. As to conditions: mitochondrial fusion phenotypic screen, at 10 µM.
As usually defined, the inhibition is the drop in the measured response relative to a control, in per cent. With `COc1cc2c(cc1NC(=O)c1cccc(Br)c1)CCCC2`, the inhibition stood at 21.9%.

Take `CCCOC(=O)CN1C(=O)c2ccccc2C1=O`: the inhibition came out at 3.9%.

For the compound `O=C(Nn1c(Cc2ccccc2)nc2ccccc2c1=O)c1c(O)c2cccc3c2n(c1=O)CCC3`, the inhibition was 64.7%.

For `Cc1ccc(Cl)cc1N1CCN(S(=O)(=O)N2CCCCC2)CC1`, the inhibition came to 61.6%.

For the compound `CCOC(=O)Cn1c(=NC(=O)c2ccc([N+](=O)[O-])s2)sc2ccccc21`, the inhibition was -0.19%.

Consider `O=c1c2c(nc3n1CCCCC3)-c1ccccc1CC21CCCCC1`, for which the inhibition stood at 34.4%.

Turning to `Cc1ccc(-c2cc(C(=O)N/N=C/C(Br)=C/c3ccccc3)n[nH]2)o1`, the inhibition is 38.7%.

On to `CC(=O)N(C)c1nnc(-c2cnccn2)s1`, for which the inhibition is -23.6%.

Turning to `C=C1C(=O)C=C2CN(C(=O)c3ccccc3)[C@@](Cc3ccc(F)cc3)(C(=O)OC)[C@@H]12`, the inhibition came out at 43.3%.

`S=C(NCc1ccccc1)N1CCN(c2cccc(Cl)c2)CC1`: the inhibition was determined as 64.7%.

Consider `Cc1ccc(NC(=O)C(OC(=O)c2ccc(O)cc2)c2ccccc2)cc1Cl` (configuration not stated), for which the inhibition was 83%.

As to `CCCCNC(=S)Nc1ccc(Oc2ccccc2)cc1`, the inhibition came to 60.6%.

In the case of `COc1ccc(-c2nc3ccccn3c2CN2CCN(c3ccccc3F)CC2)cc1`, the inhibition turned out to be 60.7%.

Regarding `O=C(Nc1cccc(Cl)c1N1CCCC1)c1ccc(Br)o1`, the inhibition is 12.8%.

Regarding `C[C@]1(C(=O)NCCCNc2ncc(C(F)(F)F)cc2Cl)C=C[C@@H](Cc2ccccc2)N1C(=O)c1ccccc1`, the inhibition is -6.34%.

As for `Cc1cc(-c2sccc2Br)nc(-n2cccc2)n1`, the inhibition stood at 52.4%.

In the case of `O=C(CNC(=S)N(Cc1ccccc1)Cc1ccccc1F)NCc1ccccc1`, the inhibition amounted to 18.1%.

Take `O=C(/C=C/C=C/c1ccccc1)CC1(O)C(=O)N(CCc2ccccc2)c2ccccc21` (configuration not stated): the inhibition was found to be 35.8%.

With `OCC1(Cc2cccc(C(F)(F)F)c2)CCN(Cc2cc(F)cc(F)c2)CC1`, the inhibition stood at 64.7%.

Take `CN1\C(=C/C=C/C=C/C=[N+](C)C)C(C)(C)c2ccccc21`: the inhibition amounted to 80.8%.

Regarding `O=c1c2cn[nH]c2nc(SCc2c(F)cccc2F)n1-c1ccc(Cl)cc1`, the inhibition is 14%.

As to `CC(/C=C1\SC(=S)N(NC(=O)c2ccc(O)cc2)C1=O)=C\c1ccccc1`, the inhibition turned out to be 87.2%.

On to `Cc1cccc2nc(-c3ccccc3)nc(N[C@@H](CO)c3ccccc3)c12`, for which the inhibition came out at 40.2%.

Take `Cn1cccc1/C=N/n1c(-c2ccc(Cl)cc2Cl)n[nH]c1=S`: the inhibition worked out at 41.9%.

In the case of `O=C(N/C=N/OCc1ccc(Cl)cc1Cl)NOCc1ncc(C(F)(F)F)cc1Cl`, the inhibition was 9.06%.

Take `COc1ccc(/C=C2\CCCC3C2=NC(=S)NC3c2ccc(OC)cc2)cc1` (configuration not stated): the inhibition came out at 47.1%.

As to `Cc1ccc(-c2cc3c(N=O)c4ccccc4c-3n[nH]2)cc1`, the inhibition was found to be 59.7%.

As to `CCOC(=O)c1c(CN2CCOCC2)n(-c2ccccc2)c2cc(Br)c(OC)cc12`, the inhibition was 32.4%.

With `COc1ccc(C)cc1N1C(=N)/C(=C2/Nc3ccccc3S2)C(c2ccccc2)C1=O` (configuration not stated), the inhibition came to 44.6%.

As to `CC(C)(C)NC(=S)NC(=O)C12CCC3CC(CC(C3)C1)C2`, the inhibition is 44.8%.

Take `COc1cccc(NC(=S)N(Cc2ccccn2)Cc2ccccc2Cl)c1`: the inhibition was found to be 46.1%.

Consider `Cc1ccc(CNC(=O)CNC(=S)N(Cc2ccccc2)Cc2ccccc2F)cc1`, for which the inhibition worked out at 31.5%.

For the compound `S=c1[nH]ncn1/N=C/c1cccc(Oc2ccccc2)c1`, the inhibition stood at 69.2%.

For the compound `Cc1c(C(=O)Nc2ccc(Oc3ccccc3)cc2)sc2nc3n(c(=O)c12)CCC3`, the inhibition came out at 33.6%.

In the case of `COC(=O)[C@@H]1CC[C@H](C)[C@@H](c2ccc(C)cc2)N1C(=O)c1ccc(/C=N/O[C@@H](C)CN2CCCCc3nc(C)c(C)cc32)cc1`, the inhibition is 9.03%.

For the compound `CCCC(NC(=S)NCC1CCCO1)C12CC3CC(CC(C3)C1)C2` (configuration not stated), the inhibition came out at 11.1%.

Turning to `C=C(C)C1Cc2c(C)nn(-c3cccc4ccccc34)c2C1` (configuration not stated), the inhibition is 61.8%.

For the compound `Cc1cc(N/N=C2\CC(C)CC(C)(C)C2)nc2ccccc12` (configuration not stated), the inhibition was found to be 58.6%.

In the case of `CCOC(=O)c1c(C)nc2ccc(Cl)cc2c1-c1ccccc1`, the inhibition is 28.1%.

Consider `CCCc1sc(N/N=C/c2ccccn2)nc1-c1ccc(Br)cc1`, for which the inhibition was determined as 4.03%.

For `CC(C)(C)n1nnnc1C(c1ccc(Cl)cc1)N(Cc1cccnc1)Cc1ccco1` (configuration not stated), the inhibition was -3.11%.

Turning to `Cc1cc(Br)c(Cl)cc1NC(=O)CN1C(=O)C2C3CC(c4ccccc4)C(C3)C2C1=O` (configuration not stated), the inhibition was 40.8%.

Take `Cc1ccc(C2(C)CC(C)(C)N(C(=O)CSc3nnc(C)s3)c3ccccc32)cc1` (configuration not stated): the inhibition came out at 17%.

On to `Cc1cccc(-n2c(CCc3ccccc3)nnc2SCC(=O)c2ccccc2)c1`, for which the inhibition is 9.06%.

`CCOc1ccccc1NC(=S)NCCc1ccc(F)cc1`: the inhibition was 54%.

As to `Cc1nn(C(C)(C)C)c(OC(=O)c2ccc3c(c2)OCO3)c1Sc1ccccc1`, the inhibition amounted to 7.78%.

For the compound `CCc1cccc(NC(=S)N2CCC(c3ccccc3)C2)c1` (configuration not stated), the inhibition was determined as 70.8%.

Regarding `Cc1ccc(C)c(NC(=S)NCCSc2ccc(Cl)cc2)c1`, the inhibition stood at 28.4%.

Regarding `COc1ccc(NS(=O)(=O)c2cc(C(=O)O)ccc2C)cc1`, the inhibition was -2.35%.

For the compound `O=C(Oc1cc2oc(=O)c3c(c2cc1Cl)CCCC3)c1cccs1`, the inhibition came out at 46.6%.

As for `CC(C)c1nc(N2CCOCC2)c(C#N)c2c1CCCC2`, the inhibition was 40%.

`COc1nc(Nc2ccc([N+](=O)[O-])cc2)nc(NC2CCCCC2)n1`: the inhibition was found to be 43.2%.

Take `Cc1cc(C)c(NC(=S)NCCCSC2CCCCC2)c(C)c1`: the inhibition was determined as 46.3%.

As for `Cc1cc(N2CCN(C)CC2)nc2ccc(NC(=S)N3CCN(c4ccc(Cl)cc4)CC3)cc12`, the inhibition was found to be 96.9%.

For the compound `FC(F)(F)c1ccc(Oc2ccc3ccccc3c2Br)nc1`, the inhibition stood at 25.8%.

Regarding `Cc1cccc(NC(=O)N(Cc2nc3ccccc3c(=O)[nH]2)C2CCCC2)c1`, the inhibition is 7.06%.

For `N/C(Cc1ccc(Cl)cc1)=N\OC(=O)c1cccc2ccccc12`, the inhibition turned out to be 91.4%.

Take `C=C(C)c1cccc(C(C)(C)NC(=O)Nc2ccc(Cl)cn2)c1`: the inhibition stood at 17.5%.

For `S=C(NCCSCc1ccccc1Cl)Nc1ccccc1`, the inhibition came out at 38.7%.

Consider `CCCC(=O)NC(=S)Nc1cccc(Cl)c1N1CCCCC1`, for which the inhibition was 10.4%.

In the case of `Clc1ccc(CNc2nc(CN3CCOCC3)nc3scc(-c4ccccc4)c23)cc1`, the inhibition came out at 17.6%.

`Cc1nn(CCC(N)=S)c2nc(-c3cccs3)cc(C(F)(F)F)c12`: the inhibition was found to be 18.6%.

`O=S(=O)(NCC(Nc1ccc(Cl)cc1)c1ccccc1)c1ccc(Cl)cc1` (configuration not stated): the inhibition turned out to be 7.18%.

Regarding `COCCCNC(=O)c1cccc(C(=O)NCCCOC)c1`, the inhibition was 5.98%.

`COC(=O)c1c(NC(=O)c2nc3nc(C)cc(C(F)F)n3n2)sc2c1CCC2`: the inhibition amounted to 15.5%.

As to `COc1cc2c(cc1OC)-c1cc3ccc4c(c3c[n+]1CC2)OCO4`, the inhibition came to 59.2%.

In the case of `COc1ccccc1-c1nnc(SCC(=O)NCc2c(C)c(Cl)cc(C(C)C)c2O)o1`, the inhibition turned out to be 4.39%.
